Self-cleavage data for 84 variants are collected here from the RNAGym collection of RNA variant scans (doi:10.1093/nar/gkz1192).

Sequences and labels used below:
B1: CPEB3 Ribozyme (parent)
chain: UAACAGGGGGCCACAGCAGAAGCGUUCACGUCGCAGCCCCUGUCAGAUUCUGGUGAAUCUGCGAAUUCUGCUGUAUAUCUC

Read counts are not given, so values of variants with three or more changes are uncertain.

The variants in the series derive from B1. Briefly: self-cleavage, relative activity (ratio to wild type); higher = more cleavage; in vitro, sequencing. The essentials: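 Libraries of CPEB3 self-cleaving ribozyme mutants came from rounds of error-prone PCR and carried barcodes, which DNA sequencing matched to variants. In vitro transcription used T7 RNA polymerase at 37°C for 5 hours, with a further 15 min in DNase I before EDTA stopped the reaction; the ribozymes cleaved during both steps. The RNA was reverse transcribed with template switching and sequenced on Illumina. Relative activity is the cleaved/total read fraction of a variant divided by that of the unmutated ribozyme, averaged over three batches with at least 5 reads.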
Take A15G G19U U58G A64U U66C U72A: the self-cleavage was determined as 0.07. The same measure for A15G U26A U48C U51C U60C A75U: 0.14; for A15G U26A A75C: 0.73; for A15G U25G U26A U80A: 0.44.

On to A15G G24A U74C, for which the self-cleavage is 0.09. A15G U25C U67A: the self-cleavage stood at 0.27. Regarding A15G U25C C29G A35G, the self-cleavage was 0.08. Consider A15G U26C A64G U67A, for which the self-cleavage was found to be 0.09. To A15G U26C A45C belongs 0.37; to A15G G33A C37U A57G, 0.08.

With A15G U25C U67C U69A A77U, the self-cleavage turned out to be 0.15. To A15G G33A A45G C50U U66C U80C belongs 0.11. As to A15G G19U U31A U43C U58C U67A, the self-cleavage worked out at 0.16. To A15G G19U G36U U41C belongs 0.09; to A15G U25C U58C U72A, 0.07; to A15G G33C U54C A65G U66C, 0.11.

Regarding A15G U26C G30C U80A, the self-cleavage amounted to 0.04.

Turning to A15G G36C U60C U69A, the self-cleavage was 0.04. As for A15G U26A A45U U76A A77G, the self-cleavage is 0.28. Take A15G U25A A28G U51A A56U: the self-cleavage came to 0.1. The same measure for A15G U26A G63U U69C: 0.29. With A15G G33A U48C U76C, the self-cleavage came to 0.08. As to A15G G36U A45G U67A, the self-cleavage was 0.12. The same measure for A15G U26A U72C A77G: 1.01; for A15G G19U A56U: 0.16. To A15G U25C A47G U69C belongs 0.26; to A15G U26A U41A A64G U74A, 0.14. To A15G U26C A28G belongs 0.06.

As to A15G U26A A45G G52U U60C, the self-cleavage came to 1.02.

With A15G G30C A57G, the self-cleavage was found to be 0.22. The same measure for A15G U25C C27A A56G U66C: 0.16; for A15G U25C A28G G55A: 0.1. To A15G U25G A77U belongs 0.16; to A15G U25C A75G, 0.25. To A15G G33A U49A A64U U66C belongs 0.15; to A15G G30U U58C A75G, 0.11. Take A15G G30U U31C G33A U54C A57G: the self-cleavage amounted to 0.05. The same measure for A15G U25C U80C: 0.21. The same measure for A15G G19U C38A A75U: 0.14.

Turning to A15G U26C A35C G53C, the self-cleavage was determined as 0.16. Turning to A15G U25A U26C, the self-cleavage came to 0.13. The same measure for A15G G46U A57U: 0.09. To A15G G46A A47U U78C belongs 0.3; to A15G G33A A47G U54C A57G C68A, 0.11; to A15G U25C U48C U69A, 0.17. On to A15G G63A U69A U80C, for which the self-cleavage is 0.19. The same measure for A15G G42A U69A: 0.16. The same measure for A15G G42A A47U A56G U69C: 0.16; for A15G G36A A45G U60C: 0.09; for A15G G46A U48C A64G: 0.1.

As for A15G U25C A64U A65G U72G U74A, the self-cleavage stood at 0.

Take A15G U26A A56G: the self-cleavage was found to be 0.65. The same measure for A15G U25C U41C A65U: 0.19; for A15G U26A U74C: 1.1; for A15G G19A G30A U60C: 0.2. The same measure for A15G U25C A47G A56G: 0.4. The same measure for A15G G42A U49A U80C: 0.08; for A15G U26A C29G: 0.08. A15G U25C A56U: the self-cleavage came out at 0.47. As to A15G U25C U26C U31A U66C, the self-cleavage is 0.25.

As to A15G U26C G30A C37A U54G U69A U80C, the self-cleavage was 0.05. To A15G U26A U41A A45G A64G U74A belongs 0.22. For the variant A15G G63A U80A, the self-cleavage worked out at 1.16. Turning to A15G G24A U67A, the self-cleavage was 0.24. The same measure for A15G G24C U66C U78C: 0.11. To A15G U25C C44U U67A belongs 0.19.

For the variant A15G U26C C62G U80A, the self-cleavage is 0.19. To A15G G24C A45G U69C belongs 0.19; to A15G U25C C71A A77C U80A, 0.06. To A15G G30A A45G G46A U66A U78C belongs 0.23.

As for A15G U25C G30U U31C U72C, the self-cleavage was 0.09. To A15G U25C C34G A45U C50G belongs 0.17; to A15G U26C C34A U72A A75U U78C, 0.14. As for A15G G19A U25C U41C, the self-cleavage stood at 0.21. To A15G G42C G52A G63U G70A A77U U80C belongs 0.19; to A15G G42A U43C A45G, 0.19. To A15G U26C C40A U41C U69C belongs 0.07.

On to A15G U26A U54C A57U, for which the self-cleavage was 0.19. The same measure for A15G G24U U26C A35G: 0.17; for A15G G30C U43C A57G: 0.16. To A15G G30A U58C belongs 0.11; to A15G U25C A56U U72A, 0.17.

Turning to A15G U25C U41G U51A, the self-cleavage was determined as 0.5. To A15G U25A A28G C68A U74C belongs 0.18.
